In US6653258B1 (priority 1987, dated 2003):

Test system: Tomato plants, cv. Outdoor Girl
Test: Phytotoxicity on tomato plants, spray to maximum retention (Table VII)
Conditions: assessed one week after final application
[1] = 10 ppm spray applied 3 times at 3-4 day intervals
[2] = 30 ppm spray applied 3 times at 3-4 day intervals
[3] = 100 ppm spray applied 3 times at 3-4 day intervals

Row | Compound | phytotoxicity, linear 0-5 scale, Tomato [1] | phytotoxicity, linear 0-5 scale, Tomato [2] | phytotoxicity, linear 0-5 scale, Tomato [3]
1 | CO/C=C(/C(=O)OC)c1ccccc1COc1ccccc1 [comparative compound, reference compound] | 2.8 | 3.4 | 3.4
2 | CCN(CC)c1cccc(OCc2ccccc2/C(=C\OC)C(=O)OC)c1 [Compound 169, Table I] | 0.3 | 0.9 | 1.5
